# The campaign covered roughly 360,000 compounds. About 11,000 (3.1%) were called active. Inconclusive results, whose numbers are uncertain, are shown with a selection of clear calls. Calls follow the shape of the dose curve; as a rule, active = well fitted inhibition curve with a large enough effect; inconclusive = small, poorly fitted or top-dose-only effect; inactive = no such curve, though single readings can be large or run the other way. Potencies of inconclusive entries are left out as doubtful fits.
# Target: Schistosoma mansoni thioredoxin glutathione reductase (TGR) (UniProt Q962Y6)
# Assay: qHTS Assay for the Inhibitors of Schistosoma Mansoni Peroxiredoxins; also: nearly all actives have a fitted effect of over 60% in size
# Details: purified TGR, DTNB reduction, TNB absorbance 405 nm; series mostly up to 114 µM
# Outline: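 TGR 20 nM + NADPH 100 uM (dispensed conc.), cpd preinc 15 min RT; start with NADPH (500 uM addition) then DTNB (15 mM addition). Kinetic TNB absorbance, 405 nm filter. Four-parameter Hill fit across titration.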
# Potency is read from the fitted curve at half-maximal effect; tags tell the direction and shape of the fitted curve.
row,Structure (SMILES),Potency
1,Cc1ccccc1CN1CCNC(=O)C1CC(=O)NC1CCCCCCC1 (configuration not stated),"inconclusive [inhibitor, partial curve, poor fit]"
2,Cc1cccc(N2CCN(C(=O)CN3C(=O)COc4ccc(S(=O)(=O)N5CCCC5)cc43)CC2C)c1 (configuration not stated),inactive
3,CCn1c(=O)n(CC)c2cc(N3CCCC3)c(NC(=O)c3ccc(OC)c(Br)c3)cc21,"inconclusive [inhibitor, partial curve]"
4,Cc1cc(C(=O)NC(Cc2ccccc2)C(=O)O)c(C)o1 (configuration not stated),"inconclusive [inhibitor, partial curve]"
5,Cc1cc(C)cc(-n2nnn(C3C/C(=N/NC(N)=S)C4OCC3O4)c2=S)c1 (configuration not stated),"inconclusive [inhibitor, partial curve]"
6,CC(=O)c1cccc(NC2c3ccccc3C(=O)N2Cc2ccco2)c1 (configuration not stated),"inconclusive [inhibitor, full curve]"
7,COC(=O)c1ccccc1NC(=O)C1CCCN(c2nnc(C)c3c(C)n(-c4ccccc4)nc23)C1 (configuration not stated),inactive
8,CN(C)c1ccc(/C=C/C=C2/SC(=S)N(c3ccccc3)C2=O)cc1,inactive
9,O=C(CN1C(=O)CC(c2ccco2)Sc2ccccc21)Nc1ccc2c(c1)OCCO2 (configuration not stated),"inconclusive [inhibitor, partial curve]"
10,CCOC(=O)c1ccc(N2C(=O)CC(NC3CCN(C(=O)c4cccc(Cl)c4)CC3)C2=O)cc1 (configuration not stated),active: 50.1 µM
11,Cc1ccc(C(c2nnnn2Cc2cccs2)N2CCN(C(=O)c3ccco3)CC2)cc1 (configuration not stated),"inconclusive [inhibitor, partial curve]"
12,O=C(C1=C[C@H](c2ccc(C(F)(F)F)cc2)C[C@H](OCc2ccc(CO)cc2)O1)N1CCN(Cc2ccccc2)CC1,active: 28.2 µM
13,Cc1ccc(C(=O)C2=C(O)C(=O)N(Cc3ccccc3)C2c2cccnc2)o1 (configuration not stated),"inconclusive [inhibitor, partial curve]"
14,O=[N+]([O-])c1ccccc1/C=C/CN1CCSCC1,"inconclusive [inhibitor, full curve, poor fit]"
15,Cc1nc2cc(NCc3ccccc3O)ccc2n1Cc1ccccc1,inactive
16,Cc1nc(N2CCNCC2)c2c3c(sc2n1)CCCC3,"inconclusive [inhibitor, partial curve, poor fit]"
17,COc1ccccc1CN(C)CC(=O)Nc1ccc(Cl)cc1C(F)(F)F,inactive
18,COc1ccccc1CCC(=O)Nc1ccc2c(c1)CN(Cc1ccc(CO)o1)CC2,"inconclusive [inhibitor, partial curve]"
19,O=C(c1cc2n(n1)C(C(F)(F)F)CC(c1ccco1)N2)N1CCc2ccccc2C1 (configuration not stated),"inconclusive [inhibitor, partial curve]"
20,COc1cccc(-c2nc(CS(=O)CC(=O)NC3CCCCC3)c(C)o2)c1 (configuration not stated),active: 17.8 µM
21,COC(=O)CCCCC(=O)OC,inactive
22,O=C(NCc1cccs1)c1cccnc1SCCS(=O)(=O)c1ccc(C(F)(F)F)cn1,"inconclusive [inhibitor, full curve]"
23,Cc1ccc(NC(=O)c2c(NC(=O)c3ccccc3Cl)sc3c2CCC3)cc1,"inconclusive [inhibitor, partial curve]"

row,Structure (SMILES),Potency
1,Cc1nn(C(=O)c2cccc(F)c2)c(C)c1S(=O)(=O)N1CCOCC1,"inconclusive [inhibitor, partial curve]"
2,COc1ccccc1/C=C/C=C1\Oc2c(ccc(O)c2CN(C)C)C1=O,"inconclusive [inhibitor, partial curve]"
3,COC(=O)C1=C(C)N(C)C(=O)NC1c1ccc([N+](=O)[O-])o1 (configuration not stated),"inconclusive [inhibitor, partial curve]"
4,CCc1ccc(N2C(=O)CC(N3CCN(c4ccccn4)CC3)C2=O)cc1 (configuration not stated),active: 22.4 µM
5,CN1CCN(C(CNS(=O)(=O)c2ccc(Br)cc2)c2ccc3c(c2)OCO3)CC1 (configuration not stated),inactive
6,CCOC(=O)C1=C[C@]2(CC)CCCN3CCc4c(n1c1ccccc41)[C@@H]32,"inconclusive [inhibitor, full curve, poor fit]"
7,Cc1ccccc1-c1noc(-c2ccccc2C(=O)NCc2ccco2)n1,active: 12.6 µM
8,Cc1c(Cl)cccc1Nc1nn2c(=O)c3ccc(C(=O)NCCC4=CCCCC4)cc3nc2s1,inactive
9,Cc1ccc(CN(C)C(=O)c2cccc(S(=O)(=O)N3CCc4ccccc4C3)c2)o1,active: 28.2 µM
10,O=[N+]([O-])c1ccc(/C([O-])=C(/C(=S)NCc2ccco2)[n+]2ccccc2)cc1,active: 22.4 µM
11,O=C(CSC1CC(=O)N(CCc2ccccc2)C1=O)Nc1ccc(Br)cc1 (configuration not stated),"inconclusive [inhibitor, single point]"
12,O=C(NC1CC2CCCC(C1)N2S(=O)(=O)c1ccccc1)c1ccco1 (configuration not stated),"inconclusive [inhibitor, single point]"
13,CSCc1ccc(C(=O)NC2CC(C)(C)Cc3c2cnn3-c2ccc(F)cc2)o1 (configuration not stated),"inconclusive [inhibitor, partial curve]"
14,C=CCNc1oc(-c2cccs2)nc1S(=O)(=O)c1ccccc1,inactive
15,CCOc1ccc2nc(NS(C)(=O)=O)sc2c1,"inconclusive [inhibitor, single point]"
16,O=C(NP(=O)(N1CCOCC1)N1CCOCC1)C1=C(N2CCOCC2)/C(=C\c2ccccc2)CC1,active: 3.16 µM
17,CN(C)c1ccc(/C=C/C=C2/C(=O)NC(=O)N(c3ccccc3)C2=O)cc1,"inconclusive [inhibitor, partial curve]"
18,Cc1cc([N+](=O)[O-])c(C)cc1-c1ccc(/C=N/NC(=O)c2cccnc2)o1,"inconclusive [inhibitor, partial curve]"
19,CCN1CCN(c2cc(C)c3cc(NC(=S)NCCCN4CCc5ccccc5C4)ccc3n2)CC1,"inconclusive [inhibitor, partial curve]"
20,COc1ccc2c(c1)C(C)=CC(C)(C)N2C(=O)Nc1ccccc1,"inconclusive [inhibitor, partial curve, poor fit]"
21,Cc1[nH]n(-c2ncc(-c3ccccc3)s2)c(=O)c1C(c1ccc(Br)cc1)C(C#N)C#N (configuration not stated),"inconclusive [inhibitor, full curve]"
22,Cc1ccnc(NC(=O)CCC(=O)N(CC(=O)NCC2CCCO2)Cc2ccc(F)cc2)c1 (configuration not stated),"inconclusive [inhibitor, full curve, poor fit]"
23,CC1=C(C#N)c2nc(N)c(C#N)c(C)c2/C1=C\c1ccc(C)cc1,"inconclusive [inhibitor, partial curve]"

row,Structure (SMILES),Potency
1,C#CCOCCOCCOCCNc1nc(N2CCN(C(=O)CCCCCCCCCCNC(=O)[C@H](CCCCN)n3cc(C)nn3)CC2)nc(N2CCN(C(=O)CCCCCCCCCCNC(=O)[C@@H]([C@H](C)O)n3cc(C)nn3)CC2)n1,inactive
2,c1ccc2c(c1)nc(NCC1CCCO1)c1nnnn12 (configuration not stated),inactive
3,O=C1CC(=O)Nc2cc(S(=O)(=O)N3CCOc4ccc(Cl)cc43)ccc2N1,"inconclusive [inhibitor, full curve, poor fit]"
4,O=C1C=CC(=O)N1c1ccc(Sc2ccc([N+](=O)[O-])cc2)cc1,active: 3.16 µM
5,CCC1Sc2ccccc2N(CC(=O)NCc2ccc3c(c2)OCO3)C1=O (configuration not stated),inactive
6,CCOc1ncccc1C(=O)OCC(=O)Nc1ccc2c(c1)OCCO2,inactive
7,COC(=O)[C@@]12CCCCN1[C@H](c1ccc(-c3ccc(C(C)=O)cc3)cc1)[C@@H]1C(=O)N(C)C(=O)[C@@H]12,"inconclusive [inhibitor, partial curve]"
8,O=C(Cn1cnc([N+](=O)[O-])c1)NCCc1ccccc1,"inconclusive [inhibitor, partial curve]"
9,COc1ccc(C(=O)NC(=S)Nc2ccc(S(N)(=O)=O)cc2)cc1,"inconclusive [inhibitor, full curve]"
10,COc1ccc(C(=O)CSc2nnc(-c3cc4ccccc4cc3O)n2Cc2ccco2)cc1,"inconclusive [inhibitor, full curve]"
11,COc1ccc(NCc2nnc(SCC(=O)c3ccc(C)cc3)o2)cc1,"inconclusive [inhibitor, partial curve]"
12,Cc1cc(/C=C2/NC(=O)N(Cc3ccccc3F)C2=O)c(C)n1C,"inconclusive [inhibitor, partial curve]"
13,COc1ccc(C(=O)N2CCN(CC(=O)N3CCOCC3)CC2)cc1,inactive
14,Cc1ccc(S(=O)(=O)CCC(=O)Nc2cc(Cl)ccc2-n2cncn2)cc1,active: 17.8 µM
15,CC(C)(C)N1CSC(=S)N(Cc2ccccc2)C1,"inconclusive [inhibitor, partial curve, poor fit]"
16,O=C1CSC(c2ccc3c(c2)OCO3)N1c1ccc(Oc2ccccc2)cc1 (configuration not stated),active: 31.6 µM
17,CCN(Cc1ccncc1)Cc1ccc(OC)c(OC)c1,"inconclusive [inhibitor, partial curve]"
18,CCOC(=O)C1CCCN(C(=O)Cn2sc3nc(C)cc(C)c3c2=O)C1 (configuration not stated),"inconclusive [inhibitor, partial curve]"
19,Cc1cc(C)nc(-n2nc(C)c(Sc3ccc(F)cc3)c2N)n1,inactive
20,S=C(Nc1ccc2c(c1)OCCO2)Nc1ccccc1Cl,"inconclusive [inhibitor, full curve, poor fit]"
21,COc1ccc(/C=C2/NC(=O)CNC2=O)cc1,"inconclusive [inhibitor, single point]"
